This is an account of results in patent US20110319597A1 (CAPHALON AUSTRALIA, published 2011).

The labels stand for the following.
B1: TNFα dAb Fc variant T69H (Fc fusion, name in Kabat numbering)
chain: DIQMTQSPSSLSASVGDRVTITCRASQAIDSYLHWYQQKPGKAPKLLIYSASNLETGVPSRFSGSGSGHDFTLTISSLLPEDFATYYCQQVVWRPFTFGQGTKVEIKRV[human IgG1 Fc with changes left out]
B2: TNFα dAb Fc variant V58K (Fc fusion, name in Kabat numbering)
chain: DIQMTQSPSSLSASVGDRVTITCRASQAIDSYLHWYQQKPGKAPKLLIYSASNLETGKPSRFSGSGSGTDFTLTISSLLPEDFATYYCQQVVWRPFTFGQGTKVEIKRV[human IgG1 Fc with changes left out]
B3: TNFα dAb Fc variant T85H (Fc fusion, name in Kabat numbering)
chain: DIQMTQSPSSLSASVGDRVTITCRASQAIDSYLHWYQQKPGKAPKLLIYSASNLETGVPSRFSGSGSGTDFTLTISSLLPEDFAHYYCQQVVWRPFTFGQGTKVEIKRV[human IgG1 Fc with changes left out]
B4: TNFα dAb Fc variant T72K (Fc fusion, name in Kabat numbering)
chain: DIQMTQSPSSLSASVGDRVTITCRASQAIDSYLHWYQQKPGKAPKLLIYSASNLETGVPSRFSGSGSGTDFKLTISSLLPEDFATYYCQQVVWRPFTFGQGTKVEIKRV[human IgG1 Fc with changes left out]
B5: TNFα dAb Fc variant T85A (Fc fusion, name in Kabat numbering)
chain: DIQMTQSPSSLSASVGDRVTITCRASQAIDSYLHWYQQKPGKAPKLLIYSASNLETGVPSRFSGSGSGTDFTLTISSLLPEDFAAYYCQQVVWRPFTFGQGTKVEIKRV[human IgG1 Fc with changes left out]
B6: TNFα dAb Fc variant T74H (Fc fusion, name in Kabat numbering)
chain: DIQMTQSPSSLSASVGDRVTITCRASQAIDSYLHWYQQKPGKAPKLLIYSASNLETGVPSRFSGSGSGTDFTLHISSLLPEDFATYYCQQVVWRPFTFGQGTKVEIKRV[human IgG1 Fc with changes left out]
B7: TNFα dAb Fc variant T74A (Fc fusion, name in Kabat numbering)
chain: DIQMTQSPSSLSASVGDRVTITCRASQAIDSYLHWYQQKPGKAPKLLIYSASNLETGVPSRFSGSGSGTDFTLAISSLLPEDFATYYCQQVVWRPFTFGQGTKVEIKRV[human IgG1 Fc with changes left out]
B8: TNFα dAb Fc variant T72Y (Fc fusion, name in Kabat numbering)
chain: DIQMTQSPSSLSASVGDRVTITCRASQAIDSYLHWYQQKPGKAPKLLIYSASNLETGVPSRFSGSGSGTDFYLTISSLLPEDFATYYCQQVVWRPFTFGQGTKVEIKRV[human IgG1 Fc with changes left out]
B9: TNFα dAb Fc variant T85D (Fc fusion, name in Kabat numbering)
chain: DIQMTQSPSSLSASVGDRVTITCRASQAIDSYLHWYQQKPGKAPKLLIYSASNLETGVPSRFSGSGSGTDFTLTISSLLPEDFADYYCQQVVWRPFTFGQGTKVEIKRV[human IgG1 Fc with changes left out]
B10: TNFα dAb Fc variant T72P (Fc fusion, name in Kabat numbering)
chain: DIQMTQSPSSLSASVGDRVTITCRASQAIDSYLHWYQQKPGKAPKLLIYSASNLETGVPSRFSGSGSGTDFPLTISSLLPEDFATYYCQQVVWRPFTFGQGTKVEIKRV[human IgG1 Fc with changes left out]
B11: TNFα dAb Fc variant V58D (Fc fusion, name in Kabat numbering)
chain: DIQMTQSPSSLSASVGDRVTITCRASQAIDSYLHWYQQKPGKAPKLLIYSASNLETGDPSRFSGSGSGTDFTLTISSLLPEDFATYYCQQVVWRPFTFGQGTKVEIKRV[human IgG1 Fc with changes left out]
B12: TNFα dAb Fc variant V58A (Fc fusion, name in Kabat numbering)
chain: DIQMTQSPSSLSASVGDRVTITCRASQAIDSYLHWYQQKPGKAPKLLIYSASNLETGAPSRFSGSGSGTDFTLTISSLLPEDFATYYCQQVVWRPFTFGQGTKVEIKRV[human IgG1 Fc with changes left out]
B13: TNFα dAb Fc variant T85Y (Fc fusion, name in Kabat numbering)
chain: DIQMTQSPSSLSASVGDRVTITCRASQAIDSYLHWYQQKPGKAPKLLIYSASNLETGVPSRFSGSGSGTDFTLTISSLLPEDFAYYYCQQVVWRPFTFGQGTKVEIKRV[human IgG1 Fc with changes left out]
B14: TNFα dAb Fc variant T85L (Fc fusion, name in Kabat numbering)
chain: DIQMTQSPSSLSASVGDRVTITCRASQAIDSYLHWYQQKPGKAPKLLIYSASNLETGVPSRFSGSGSGTDFTLTISSLLPEDFALYYCQQVVWRPFTFGQGTKVEIKRV[human IgG1 Fc with changes left out]
B15: TNFα dAb Fc variant T72L (Fc fusion, name in Kabat numbering)
chain: DIQMTQSPSSLSASVGDRVTITCRASQAIDSYLHWYQQKPGKAPKLLIYSASNLETGVPSRFSGSGSGTDFLLTISSLLPEDFATYYCQQVVWRPFTFGQGTKVEIKRV[human IgG1 Fc with changes left out]
B16: TNFα dAb Fc variant T85Q (Fc fusion, name in Kabat numbering)
chain: DIQMTQSPSSLSASVGDRVTITCRASQAIDSYLHWYQQKPGKAPKLLIYSASNLETGVPSRFSGSGSGTDFTLTISSLLPEDFAQYYCQQVVWRPFTFGQGTKVEIKRV[human IgG1 Fc with changes left out]
B17: TNFα dAb Fc variant T74P (Fc fusion, name in Kabat numbering)
chain: DIQMTQSPSSLSASVGDRVTITCRASQAIDSYLHWYQQKPGKAPKLLIYSASNLETGVPSRFSGSGSGTDFTLPISSLLPEDFATYYCQQVVWRPFTFGQGTKVEIKRV[human IgG1 Fc with changes left out]
B18: TNFα dAb Fc variant T74L (Fc fusion, name in Kabat numbering)
chain: DIQMTQSPSSLSASVGDRVTITCRASQAIDSYLHWYQQKPGKAPKLLIYSASNLETGVPSRFSGSGSGTDFTLLISSLLPEDFATYYCQQVVWRPFTFGQGTKVEIKRV[human IgG1 Fc with changes left out]
B19: TNFα dAb Fc variant T74D (Fc fusion, name in Kabat numbering)
chain: DIQMTQSPSSLSASVGDRVTITCRASQAIDSYLHWYQQKPGKAPKLLIYSASNLETGVPSRFSGSGSGTDFTLDISSLLPEDFATYYCQQVVWRPFTFGQGTKVEIKRV[human IgG1 Fc with changes left out]
B20: TNFα dAb Fc variant T85P (Fc fusion, name in Kabat numbering)
chain: DIQMTQSPSSLSASVGDRVTITCRASQAIDSYLHWYQQKPGKAPKLLIYSASNLETGVPSRFSGSGSGTDFTLTISSLLPEDFAPYYCQQVVWRPFTFGQGTKVEIKRV[human IgG1 Fc with changes left out]
B21: TNFα dAb Fc variant T72D (Fc fusion, name in Kabat numbering)
chain: DIQMTQSPSSLSASVGDRVTITCRASQAIDSYLHWYQQKPGKAPKLLIYSASNLETGVPSRFSGSGSGTDFDLTISSLLPEDFATYYCQQVVWRPFTFGQGTKVEIKRV[human IgG1 Fc with changes left out]
B22: TNFα dAb Fc variant T72Q (Fc fusion, name in Kabat numbering)
chain: DIQMTQSPSSLSASVGDRVTITCRASQAIDSYLHWYQQKPGKAPKLLIYSASNLETGVPSRFSGSGSGTDFQLTISSLLPEDFATYYCQQVVWRPFTFGQGTKVEIKRV[human IgG1 Fc with changes left out]
B23: TNFα dAb Fc variant T74K (Fc fusion, name in Kabat numbering)
chain: DIQMTQSPSSLSASVGDRVTITCRASQAIDSYLHWYQQKPGKAPKLLIYSASNLETGVPSRFSGSGSGTDFTLKISSLLPEDFATYYCQQVVWRPFTFGQGTKVEIKRV[human IgG1 Fc with changes left out]
B24: TNFα dAb Fc variant T72A (Fc fusion, name in Kabat numbering)
chain: DIQMTQSPSSLSASVGDRVTITCRASQAIDSYLHWYQQKPGKAPKLLIYSASNLETGVPSRFSGSGSGTDFALTISSLLPEDFATYYCQQVVWRPFTFGQGTKVEIKRV[human IgG1 Fc with changes left out]
B25: TNFα dAb Fc variant T69P (Fc fusion, name in Kabat numbering)
chain: DIQMTQSPSSLSASVGDRVTITCRASQAIDSYLHWYQQKPGKAPKLLIYSASNLETGVPSRFSGSGSGPDFTLTISSLLPEDFATYYCQQVVWRPFTFGQGTKVEIKRV[human IgG1 Fc with changes left out]
B26: TNFα dAb Fc variant T74Y (Fc fusion, name in Kabat numbering)
chain: DIQMTQSPSSLSASVGDRVTITCRASQAIDSYLHWYQQKPGKAPKLLIYSASNLETGVPSRFSGSGSGTDFTLYISSLLPEDFATYYCQQVVWRPFTFGQGTKVEIKRV[human IgG1 Fc with changes left out]
B27: TNFα dAb Fc variant T85K (Fc fusion, name in Kabat numbering)
chain: DIQMTQSPSSLSASVGDRVTITCRASQAIDSYLHWYQQKPGKAPKLLIYSASNLETGVPSRFSGSGSGTDFTLTISSLLPEDFAKYYCQQVVWRPFTFGQGTKVEIKRV[human IgG1 Fc with changes left out]
B28: TNFα dAb Fc variant T74Q (Fc fusion, name in Kabat numbering)
chain: DIQMTQSPSSLSASVGDRVTITCRASQAIDSYLHWYQQKPGKAPKLLIYSASNLETGVPSRFSGSGSGTDFTLQISSLLPEDFATYYCQQVVWRPFTFGQGTKVEIKRV[human IgG1 Fc with changes left out]
B29: TNFα dAb Fc variant V58H (Fc fusion, name in Kabat numbering)
chain: DIQMTQSPSSLSASVGDRVTITCRASQAIDSYLHWYQQKPGKAPKLLIYSASNLETGHPSRFSGSGSGTDFTLTISSLLPEDFATYYCQQVVWRPFTFGQGTKVEIKRV[human IgG1 Fc with changes left out]

In the assay the target is T1, recombinant human TNFα (CytoLab) (human, UniProt P01375 part only).
T1 construct: coated on the ELISA plate at 1 µg/ml; also called Tumour necrosis factor alpha
T1 sequence (P01375 77-233 limits assumed): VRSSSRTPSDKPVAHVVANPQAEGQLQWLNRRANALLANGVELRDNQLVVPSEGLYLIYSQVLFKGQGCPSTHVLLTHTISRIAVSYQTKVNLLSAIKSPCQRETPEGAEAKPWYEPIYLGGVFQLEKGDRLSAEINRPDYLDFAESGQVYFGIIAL
Put plainly: ELISA on coated human TNFα. (An ELISA detects its analyte on a solid surface through an enzyme-linked reagent.)
As to B1, the “A450 (AU)” value is 0.904 AU.

B2: the “A450 (AU)” value was found to be 0.205 AU.

Consider B3, for which the “A450 (AU)” value was determined as 0.769 AU.

Regarding B4, the “A450 (AU)” value was 0.936 AU.

For the molecule B5, the “A450 (AU)” value was 0.92 AU.

B6: the “A450 (AU)” value was 0.929 AU.

With B7, the “A450 (AU)” value was 0.906 AU.

As to B8, the “A450 (AU)” value stood at 0.193 AU.

Take B9: the “A450 (AU)” value amounted to 0.59 AU.

B10: the “A450 (AU)” value is 0.149 AU.

With B11, the “A450 (AU)” value was found to be 0.185 AU.

Consider B12, for which the “A450 (AU)” value worked out at 1.02 AU.

As to B13, the “A450 (AU)” value is 0.895 AU.

B14: the “A450 (AU)” value is 0.742 AU.

Turning to B15, the “A450 (AU)” value stood at 1.04 AU.

B16: the “A450 (AU)” value came out at 0.764 AU.

In the case of B17, the “A450 (AU)” value was 0.187 AU.

With B18, the “A450 (AU)” value amounted to 0.718 AU.

As to B19, the “A450 (AU)” value was 0.962 AU.

As to B20, the “A450 (AU)” value amounted to 0.195 AU.

On to B21, for which the “A450 (AU)” value amounted to 0.916 AU.

As for B22, the “A450 (AU)” value was 0.966 AU.

Regarding B23, the “A450 (AU)” value stood at 0.905 AU.

For B24, the “A450 (AU)” value was found to be 0.905 AU.

For B25, the “A450 (AU)” value was 0.76 AU.

B26: the “A450 (AU)” value is 0.64 AU.

Regarding B27, the “A450 (AU)” value was determined as 0.682 AU.

With B28, the “A450 (AU)” value is 0.884 AU.

In the case of B29, the “A450 (AU)” value stood at 0.22 AU.
